# Data: the supplement of paper PMC8728848
# The list shows a part of the results.
# Key:
# Test in all cases: glycan array binding signal (z-score within array); higher = stronger binding
# Details in all cases: glycan notation: IUPAC condensed, linker removed
# [1] = biological target: Gal6S(b1-4)Glc
# Procedure, shortened: (§1)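 The Consortium for Functional Glycomics database supplied 3228 glycan arrays, of which those lacking an available protein sequence were dropped. The binding signal, a within-array Z-score, was averaged across arrays of the same protein sequence and across linkers. Negative scores can be read as non-binding.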
# [2] = biological target: Gal6S(b1-4)Glc6S
# Procedure, shortened: as §1
# [3] = biological target: Gal6S(b1-4)GlcNAc
# Procedure, shortened: as §1
# [4] = biological target: Gal6S(b1-4)GlcNAc6S
# Procedure, shortened: as §1
# [5] = biological target: GalNAc(a1-3)Gal
# Procedure, shortened: as §1
# [6] = biological target: GalNAc(a1-3)GalNAc
# Procedure, shortened: as §1
# [7] = biological target: GalNAc(a1-3)GalNAc(b1-3)Gal(a1-4)Gal(b1-4)Glc
# Procedure, shortened: as §1
# [8] = biological target: GalNAc(a1-3)GalNAc(b1-3)Gal(a1-4)Gal(b1-4)GlcNAc
# Procedure, shortened: as §1
# [9] = biological target: GalNAc(b1-3)Gal
# Procedure, shortened: as §1
# [10] = biological target: GalNAc(b1-3)Gal(a1-4)Gal(b1-4)GlcNAc
# Procedure, shortened: as §1
# [11] = biological target: GalNAc(b1-3)Gal(a1-4)Gal(b1-4)GlcNAc(b1-3)Gal(b1-4)Glc
# Procedure, shortened: as §1
# [12] = biological target: GalNAc(b1-3)Gal(a1-6)Gal(b1-4)Glc
# Procedure, shortened: as §1
# [13] = biological target: GalNAc(b1-3)GalNAc
# Procedure, shortened: as §1
# [14] = biological target: GalNAc(b1-3)GlcNAc
# Procedure, shortened: as §1
# [15] = biological target: GalNAc(b1-4)Gal(b1-4)Glc
# Procedure, shortened: as §1
# [16] = biological target: GalNAc(b1-4)GlcNAc
# Procedure, shortened: as §1
# [17] = biological target: GalNAc(b1-4)GlcNAc(b1-2)Man
# Procedure, shortened: as §1
# [18] = biological target: GalNAc(b1-4)GlcNAc(b1-2)Man(a1-3)[GalNAc(b1-4)GlcNAc(b1-2)Man(a1-6)]Man(b1-4)GlcNAc(b1-4)GlcNAc
# Procedure, shortened: as §1
# [19] = biological target: GalNAc(b1-4)GlcNAc(b1-3)GalNAc(b1-4)GlcNAc
# Procedure, shortened: as §1
# [20] = biological target: GalNAc(b1-4)GlcNAc6S
# Procedure, shortened: as §1
# [21] = biological target: GalNAc(b1-6)GalNAc
# Procedure, shortened: as §1
# [22] = biological target: GalNAc3S(b1-4)GlcNAc
# Procedure, shortened: as §1
# [23] = biological target: GalNAc3S(b1-4)GlcNAc3S
# Procedure, shortened: as §1
# [24] = biological target: GalNAc3S(b1-4)[Fuc(a1-3)]GlcNAc
# Procedure, shortened: as §1
# [25] = biological target: GalNAc4S6S(b1-4)GlcNAc
# Procedure, shortened: as §1
# [26] = biological target: GalNAc6S(b1-4)GlcNAc
# Procedure, shortened: as §1
# [27] = biological target: Glc(a1-4)Glc
# Procedure, shortened: as §1
# [28] = biological target: Glc(a1-4)Glc(a1-4)Glc(a1-4)Glc
# Procedure, shortened: as §1
# [29] = biological target: Glc(a1-6)Glc(a1-6)Glc
# Procedure, shortened: as §1
# [30] = biological target: Glc(a1-6)Glc(a1-6)Glc(a1-6)Glc
# Procedure, shortened: as §1
# [31] = biological target: Glc(b1-4)Glc
# Procedure, shortened: as §1
# [32] = biological target: Glc(b1-6)Glc
# Procedure, shortened: as §1
# [33] = biological target: GlcA(b1-3)Gal
# Procedure, shortened: as §1
# [34] = biological target: GlcA(b1-3)GlcNAc
# Procedure, shortened: as §1
# [35] = biological target: GlcA(b1-6)Gal
# Procedure, shortened: as §1
# [36] = biological target: GlcA3S(b1-3)Gal(b1-4)GlcNAc(b1-2)Man
# Procedure, shortened: as §1
# [37] = biological target: GlcA3S(b1-3)Gal(b1-4)GlcNAc(b1-3)Gal(b1-4)Glc
# Procedure, shortened: as §1
binder,measurement,setting,value
"Als1 (Candida albicans), P46590 (protein) KTITGVFDSFNSLTWSNAANYAFKGPGYPTWNAVLGWSLDGTSANPGDTFTLNMPCVFKYTTSQTSVDLTADGVKYATCQFYSGEEFTTFSTLTCTVNDALKSSIKAFGTVTLPIAFNVGGTGSSTDLEDSKCFTAGTNTVTFNDGDKDISIDVEFEKSTVDPSGYLYASRVMPSLNKVTTLFVAPQCENGYTSGTMGFSSSNGDVAIDCSNIHIGITKGLNDWNYPVSSESFSYTKTCTSNGIQIKYQNVPAGYRPFIDAYISATDVNQYTLAYTNDYTCAGSRLQSKPFTLRWTGYKNSDAGSNGIVIVATTRTVTDSTTAVTTLPFNPSVDKTKTIEILQPIPTTTITTSYVGVTTSYLTKTAPIGETATVIVDVPYHTTTTVTSEWTGTITTTTTRTNPTDSIDTVVVQVP",glycan array binding signal (z-score),[1],-0.309
same,glycan array binding signal (z-score),[2],-0.496
same,glycan array binding signal (z-score),[3],-0.246
same,glycan array binding signal (z-score),[4],0.563
same,glycan array binding signal (z-score),[5],-0.112
same,glycan array binding signal (z-score),[6],-1.08
same,glycan array binding signal (z-score),[7],0.222
same,glycan array binding signal (z-score),[8],0.295
same,glycan array binding signal (z-score),[9],-0.084
same,glycan array binding signal (z-score),[10],0.105
same,glycan array binding signal (z-score),[11],-0.171
same,glycan array binding signal (z-score),[12],1.09
same,glycan array binding signal (z-score),[13],0.185
same,glycan array binding signal (z-score),[14],0.265
same,glycan array binding signal (z-score),[15],0.601
same,glycan array binding signal (z-score),[16],0.055
same,glycan array binding signal (z-score),[17],-0.346
same,glycan array binding signal (z-score),[18],-0.045
same,glycan array binding signal (z-score),[19],0.046
same,glycan array binding signal (z-score),[20],0.045
same,glycan array binding signal (z-score),[21],-0.555
same,glycan array binding signal (z-score),[22],-0.713
same,glycan array binding signal (z-score),[23],-0.181
same,glycan array binding signal (z-score),[24],-0.443
same,glycan array binding signal (z-score),[25],-0.157
same,glycan array binding signal (z-score),[26],-0.164
same,glycan array binding signal (z-score),[27],0.329
same,glycan array binding signal (z-score),[28],0.492
same,glycan array binding signal (z-score),[29],-0.246
same,glycan array binding signal (z-score),[30],-0.341
same,glycan array binding signal (z-score),[31],1.05
same,glycan array binding signal (z-score),[32],1.43
same,glycan array binding signal (z-score),[33],-0.385
same,glycan array binding signal (z-score),[34],0.319
same,glycan array binding signal (z-score),[35],-0.568
same,glycan array binding signal (z-score),[36],-0.192
same,glycan array binding signal (z-score),[37],0.175
